# Out of some 220,000 compounds screened, about 16,000 (7.3%) were called active. This list was built around the results that the source calls inconclusive (neither active nor inactive); the mix of calls is not that of the screen. Calls come from the whole dose curve; as a rule, active = well fitted inhibition curve with a large enough effect (not every such curve was filed as active); inconclusive = small, poorly fitted or top-dose-only effect, or another doubt; inactive = no such curve, though single readings can be large or run the other way. Potencies of inconclusive entries are left out as doubtful fits.
# Molecular target: Aldehyde dehydrogenase 1A1 (Homo sapiens) (UniProt P00352)
# Sequence of UniProt P00352 (P00352 whole entry, looked up): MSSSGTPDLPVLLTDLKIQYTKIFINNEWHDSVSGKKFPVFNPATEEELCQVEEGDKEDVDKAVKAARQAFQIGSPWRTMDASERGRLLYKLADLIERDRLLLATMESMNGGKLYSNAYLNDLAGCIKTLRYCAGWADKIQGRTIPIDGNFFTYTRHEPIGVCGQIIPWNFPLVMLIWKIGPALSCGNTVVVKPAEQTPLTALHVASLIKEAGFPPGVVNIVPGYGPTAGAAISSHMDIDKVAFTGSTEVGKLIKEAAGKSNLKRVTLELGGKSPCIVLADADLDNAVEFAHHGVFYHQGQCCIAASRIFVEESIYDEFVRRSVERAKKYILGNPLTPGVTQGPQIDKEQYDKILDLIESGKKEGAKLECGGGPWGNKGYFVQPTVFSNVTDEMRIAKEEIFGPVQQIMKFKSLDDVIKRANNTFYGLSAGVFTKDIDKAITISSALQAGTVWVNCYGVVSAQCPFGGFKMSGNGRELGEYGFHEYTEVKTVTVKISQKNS
# Experiment: qHTS Assay for Inhibitors of Aldehyde Dehydrogenase 1 (ALDH1A1)
# Details: Purified ALDH1A1, NADH fluorescence, propionaldehyde substrate; series mostly up to 75.3 µM
# Potency is the fitted concentration of half-maximal effect; tags give direction and shape of the fitted curve.
row,Structure (SMILES),Potency
1,CCOC(=O)C1CCCN(S(=O)(=O)c2ccc(NC(C)=O)cc2)C1 (centres undefined),active: 2.82 µM
2,Cc1ccc(-c2cc(C(=O)N3CCN(c4ccc(F)cc4)CC3)c3ccccc3n2)o1,"inconclusive [inhibitor, partial curve]"
3,COc1ccc(-n2c(=O)c(-c3cccs3)nc3cnc(N(C)C)nc32)cc1,"inconclusive [inhibitor, single point]"
4,CC1(C)CC(=O)C=C(NCc2ccc(Cl)c(Cl)c2)C1,inactive
5,O=C1O/C(=C\c2ccccc2)c2ccccc21,"inconclusive [inhibitor, single point]"
6,COc1ccc(/C=N/NC(N)=S)cc1OC(=O)c1cccc2ccccc12,"inconclusive [inhibitor, partial curve]"
7,Cc1ccc(S(=O)(=O)N(C)CC(=O)N2CCCc3ccccc32)cc1,"inconclusive [inhibitor, single point]"
8,COc1cccc(C2(O)CC(C(F)(F)F)=NN2C(=O)c2ccccn2)c1 (centres undefined),inactive
9,COc1ccccc1CNC(=O)c1ccc(S(=O)(=O)N(C)C)cc1,"inconclusive [inhibitor, single point]"
10,Cc1cc(C)n2nc(CC(=O)NCc3ccccc3Cl)nc2n1,inactive
11,CCOC(=O)c1ccc2nc(CCC(=O)N[C@H](C(=O)OC)C(C)C)c(=O)n(CC)c2c1,"inconclusive [inhibitor, partial curve]"
12,O=C1CCCC(O)=C1N=Nc1ccc2ncsc2c1,active: 25.1 µM
13,CC(=O)Nc1ccc(/C=C/c2ccc3c([N+](=O)[O-])cccc3n2)cc1,inactive
14,O=C(NNC1=C(C(=O)C(F)(F)F)CCC1)c1cccc(Cl)c1,"inconclusive [inhibitor, single point]"
15,OCCN1CCN(c2nc3ccccc3nc2-c2ccccc2)CC1,"inconclusive [inhibitor, single point]"
16,Cc1ccnc(N2CCC(C(=O)NNC(=O)COc3cccc4ccccc34)CC2)n1,"inconclusive [inhibitor, single point]"
17,O=C(NC(=S)NCc1ccccc1)C1CC1,inactive
18,Cn1c(=O)n(Cc2ccc(Br)cc2)c2ccccc21,inactive
19,CCOC(=O)c1[nH]c(=O)[nH]c1COC(=O)c1cc2ccccc2o1,"inconclusive [inhibitor, full curve]"
20,CC1C(=O)NN=C1C(=O)N/N=C/c1ccco1 (centres undefined),inactive
21,O=C(Nc1ccc(/C=C/c2nc3ccccc3o2)cc1)c1ccc(F)cc1,"inconclusive [inhibitor, partial curve]"
22,O=C(c1ccc2nc(N3CCOCC3)sc2c1)N1CCN(C(=O)c2ccco2)CC1,"inconclusive [inhibitor, single point]"

row,Structure (SMILES),Potency
1,Cc1nc(C(C)N(C)Cc2nc(-c3ccc4c(c3)OCO4)no2)c(C)s1 (centres undefined),inactive
2,CCOC(=O)/C=C(/C)N1N=C(c2ccc(OC)cc2)CC1c1cccc([N+](=O)[O-])c1 (centres undefined),"inconclusive [inhibitor, single point]"
3,CCOC(=O)C1CCCN(CC(=O)Nc2c(C(=O)OC)[nH]c3ccc(Br)cc23)C1 (centres undefined),"inconclusive [inhibitor, single point]"
4,CCc1cccc2c(C(=O)CSc3nncn3C)c[nH]c12,inactive
5,O=C(Nc1nnc(CCS(=O)(=O)c2ccc(Br)cc2)s1)c1ccc([N+](=O)[O-])cc1,inactive
6,CCn1cc(C(=O)NCc2cccnc2)c(=O)c2cc(F)c(N3CCN(C(=O)c4ccco4)CC3)cc21,"inconclusive [inhibitor, partial curve]"
7,O=C(COc1cccnc1[N+](=O)[O-])N1CCN(S(=O)(=O)c2ccccc2)CC1,"inconclusive [inhibitor, single point]"
8,O=C(N/N=C/c1ccc(O)cc1)c1cc[n+](Cc2ccccc2)cc1,"inconclusive [inhibitor, single point]"
9,O=c1c(CCc2ccccc2)nc2cnc(N3CCNCC3)nc2n1-c1ccccc1,"inconclusive [inhibitor, partial curve]"
10,COc1ccc(OC)c(CN2CCCC(C(=O)N3CCCCC3)C2)c1 (centres undefined),"inconclusive [inhibitor, single point]"
11,CCOC(=O)/C(C(=O)Nc1ccc(Br)cc1)=C1/NC(C)(C)Cc2ccccc21,"inconclusive [inhibitor, partial curve]"
12,CC(C)(C)c1[nH]nc2c1C(c1ccc(OC(=O)c3ccco3)cc1)C(C#N)=C(N)O2 (centres undefined),active: 4.47 µM
13,CN(C)S(=O)(=O)c1cccc(NC(=O)c2n[nH]c(=O)c3ccccc23)c1,"inconclusive [inhibitor, partial curve]"
14,Cc1ccnc(NC(=O)CC(c2ccccc2)c2ccccc2)n1,inactive
15,O=C(CCCCCn1c(SCc2ccncc2)nc2ccccc2c1=O)NCc1ccco1,active: 25.1 µM
16,N#Cc1cccc(NC(=O)N2CC[C@@]3(CCCN(C(=O)c4ccncc4)C3)C2)c1,inactive
17,COCCn1c(=O)c(-c2ccc(F)cc2)nc2cnc(Oc3cccc(Cl)c3)nc21,"inconclusive [inhibitor, partial curve]"
18,Cc1csc2ncc(C(=O)NCc3ccccc3Cl)c(=O)n12,"inconclusive [inhibitor, partial curve]"
19,CCOC(=O)c1c(-c2cccc([N+](=O)[O-])c2)csc1NC(=O)CCCOc1ccccc1,"inconclusive [inhibitor, partial curve]"
20,O=C(C(Cl)Cl)N1CCN(c2ccccn2)CC1,"inconclusive [inhibitor, single point]"
21,CCCN(C(=O)CSc1cc(-c2ccccc2)c2ccc(OC)cc2n1)C1CCS(=O)(=O)C1 (centres undefined),"inconclusive [inhibitor, single point]"
22,CN1C(=O)c2cccc(NC(=O)CCc3ccccc3)c2C1=O,"inconclusive [inhibitor, single point]"
